Experimental data taken from the supplement of paper PMC12632987.
Whole data set: some 1,800 sequences, median “median log2 fold change of GCK-ALFA target abundance (FLAG IP / Myc IP barcode read proportion)” near 0.14, cut for the lowest 2% near -0.84. Some of the results follow.

T1: TRAF2, Q12933
T1 chain: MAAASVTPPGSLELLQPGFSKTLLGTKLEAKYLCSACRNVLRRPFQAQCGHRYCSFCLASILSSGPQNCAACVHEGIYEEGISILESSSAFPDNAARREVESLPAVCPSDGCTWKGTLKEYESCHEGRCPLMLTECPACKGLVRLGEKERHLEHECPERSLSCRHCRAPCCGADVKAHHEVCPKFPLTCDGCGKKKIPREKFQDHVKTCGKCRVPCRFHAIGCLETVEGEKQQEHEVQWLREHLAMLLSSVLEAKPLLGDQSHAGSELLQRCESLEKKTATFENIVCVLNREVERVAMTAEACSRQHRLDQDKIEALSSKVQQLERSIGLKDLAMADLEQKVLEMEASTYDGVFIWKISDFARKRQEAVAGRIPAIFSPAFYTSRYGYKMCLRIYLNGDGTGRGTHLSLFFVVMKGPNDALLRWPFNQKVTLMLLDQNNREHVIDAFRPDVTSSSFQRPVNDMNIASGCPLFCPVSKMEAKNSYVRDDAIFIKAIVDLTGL

B1: traf2_out_16_104_1411 (protein)
chain: AAARDAEFDAIIAELEAIAERLGKIANKLYKKMETASPEEKKKLTDALVEASELRRRALEAAVAAREARATGGDLAAAKKTLAELEKEAKKVEEKAKKLF
B2: traf2_out_13_95_1117 (protein)
chain: SREVAKKIMEIADKMEEKRLKLLEELLKKAKAAGKAEEEIQAILEFAKHGTINEVIHRLRELAEKYPEMKAEFDATIAKLEEIRREAGREVAKILKEEEE
B3: traf2_out_1_18_938 (protein)
chain: MTPEELRFAQELAGKLHKALQDARENYAKDPEAAIKALKETAEKLIKEALEKKNELALISMSAIFDVYAREAKEEGKEKLAKAFEEIREKFKKAYEELKK
B4: traf2_out_5_63_2364 (protein)
chain: SERDRLTALAREADRLVQELLEAKKAGDEEKVEELIKRAVADPELARLVLGILKGEAKYYELLGNKPEEAKLAKELAERLEKAMAEAEAERAAAAAAAAA
B5: traf2_out_20_3_2225 (protein)
chain: EELEKEAEKKLEEALKKLKEIEKKADPKTKAKIKAMIKKLKEARELDPVDRLVVVSEVQRTLLELAQEAKAAGNEKLAKLLEEAAELLQKLKQLLYQIIE
B6: traf2_out_18_117_1780 (protein)
chain: AERERLIERAEELAERLDEAASRLGKVFLENYEKLTPEEKSEIMDVLADLTAVRREALLLIQRIRAGEVPVEEARRRLEELEVRADAAIAAAEARIARIE
B7: traf2_out_18_167_1821 (protein)
chain: SEETKKKIEELTDELVKVSEIRRLALQALEALRTDPAAAPAARAALIAALEEVPEFRPWAARLRAAPEAELPALLEEIAEEAGRRAQELYDEREELLKKS
B8: traf2_out_12_187_956 (protein)
chain: SVKDELLEAAKAAVKQAKKKLKEHADTDPEVQEFLEKLEELEKLLKKHPEIAADLLVAASAIIRYMDLIEEGAPAEQIEAARKKAKELLEEALKEAKKLE
B9: traf2_out_20_3_2263 (protein)
chain: EELRKELEEELRKARELLEEIAPELPPEDAARLRALLEKAEEALKTDYTDALVYVSELRRLALELAERARAEGNEELAARLRELADRYGRAAYLLYKIIE
B10: traf2_out_11_155_706 (protein)
chain: EKKRELQNELVDKNIEIEDKLRAEVDAIAAAAAAAHPEHAAAIAAVRAESAPFSGTTYARLMARRFRELGLDDEAARVEALLEKAQKEKNKIYKEIEAKM
B11: traf2_out_18_167_1875 (protein)
chain: SAELEKEYQEASDRLVELSEIRRALLLALEALKRSREEARAVLEAALARFPDSEVLKEALEVAETKSPEELRAFLEEEAERLQKEANEEYKKLEELRKKK
B12: traf2_out_14_166_1285 (protein)
chain: MSPEEIERIREIVDKLEPLNDEAVKKAEEILEKNKDKFSPEDLKRLEELLEIARRNIGSSAINALYEMSEIAKKAGLEEAAKEFKELADKLEKKLSELNK
B13: traf2_out_8_15_2554 (protein)
chain: SIEEAAEKDIKRLEALSDGDKESLIRTLLGMAKAELRYAEILAEEGRKEEALRSLEHALIYAERALELAKEIGSPDLEAIKKEVEEIRKRVEELRKKIEA
B14: traf2_out_1_27_995 (protein)
chain: STEEETELIREAMKKMANSSLEEKLEIARELIRRMHEVSVGSARTAAVLLVSTMKTEEEFEALLEAIEATFRELGLSPEEIARIRRQMETMWELLKKAYA
B15: traf2_out_11_169_814 (protein)
chain: KEAEKNRKINDFALELNDEAKEKLLKFALELAKKAGLDVEEVKKIFEENKNKSLSAVAAALIEYFKSKGKEEEAAAVLEKYEELKEEINKKSTEKIKELE
B16: traf2_out_18_117_1792 (protein)
chain: MKREEIIAELRKIAEELDKAASELGTLMLEKWEELSPEEKSEAMDVLADLTEVRQRALLLIQRIEEEDLPVEEAIAEAEELRKKAEEALKKAKEMIEKIK
B17: traf2_out_13_95_1139 (protein)
chain: SKETAEKINEVADEMLEKVEEVLERLLEIAKEKGVGEKEIEEVLHLARYRSINEAIHKLKELAKKLPEMKEELEKAIEELEKIRREAGKRVAEILKEEKE
B18: traf2_out_9_108_2587 (protein)
chain: MSEEEKLEEIFEKVKKLAEEFLEEVDLSPELKEDLKAAIEQAEKLYKEGLKRTAIILLAISMARVAYEVGEEAVKWLLERLKEIDERAYSAARRMVELLK
B19: traf2_out_14_149_1249 (protein)
chain: SHTEERKKALKEAAKLMEEIIKILQEALEAGSTEVDKEKIRKLLEEAREILRKQGFVLGHLLAMEEMLETTKEWTLEKIREFLELAERARESLEVLAEML

Molecular target: T1, TRAF2, Q12933
Assay: median log2 fold change of GCK-ALFA target abundance (FLAG IP / Myc IP barcode read proportion) (log2 ratio); each designed protein is fused to an ALFA-tag nanobody in HEK293 cells to bring the named protein to FLAG-tagged glucokinase (GCK); Myc marks an untargeted standard; higher = target protein stabilised (more abundant)
Conditions: target protein: 3xFLAG-MCP-GCK-ALFA reporter; HEK293 landing pad (RPLP)
How it was run: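 Sequencing of reverse-transcribed, amplified circular RNA barcodes from anti-FLAG and anti-Myc immunoprecipitates provided the readout for an ALFA-nanobody-fused binder library recombined into HEK293 landing-pad cells. Those cells were induced with 2 μg mL^−1 doxycycline, transfected with a plasmid expressing a FLAG-tagged target and a Myc-tagged standard, and lysed after 48 h. Target abundance is the per-binder median log2 ratio of FLAG to Myc barcode read proportions. Only barcodes at a proportion of ≥10^−7 in both replicates and binders with ≥3 barcodes per replicate were kept, with a 10^−6 pseudocount added before the two replicates were pooled.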

Binder | median log2 fold change
B1 | 0.0952
B2 | -0.0888
B3 | 0.0715
B4 | -0.212
B5 | -0.0581
B6 | -0.0221
B7 | 0.0984
B8 | 0.138
B9 | 0.115
B10 | 0.311
B11 | 0.229
B12 | 0.332
B13 | 0.292
B14 | -0.292
B15 | 0.0171
B16 | 0.421
B17 | 0.348
B18 | -0.666
B19 | -0.109
